Measured values from the supplement of paper PMC7125110.
± gives the standard error. Variants at the background level are over-represented here.

B1: glmS ribozyme (parent)
chain: AUAAAAGCGCCAGAACUACAGAAAUGUAGUUGACGAGGAGGAGGUUUAUCGAAUUUUCGGCGGAUGCCUCCAAA

Variants of: B1
Experiment: self-cleavage kobs at 160 uM GlcN6P; higher = faster cleavage; RNA array
Conditions: with glucosamine-6-phosphate
Method in brief: (§1)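 E. coli RNA polymerase transcribed barcoded ribozyme variants in situ on sequenced MiSeq chips, which were tracked via a hybridised Cy3 probe at 37 °C. Tiles were imaged over ~14 h after glucosamine-6-phosphate (40 μM to 10 mM) in HEPES/KCl/Mg(OAc)2 buffer was flowed in. Normalised per-tile medians were fit to one- or two-exponential decays for kobs, and kcat and KM came from weighted Michaelis–Menten fits.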

self-cleavage kobs at 160 uM GlcN6P, 0.000121 ± 3.5e-05 s⁻¹:
G26U G29A U54A C70U C71U

self-cleavage kobs at 160 uM GlcN6P, 4.31e-05 ± 1.1e-05 s⁻¹:
U65A C71G

self-cleavage kobs at 160 uM GlcN6P, 7.21e-05 ± 2.5e-05 s⁻¹:
C10A A52U C68A

self-cleavage kobs at 160 uM GlcN6P, 6.56e-05 ± 3.2e-05 s⁻¹:
C50G G59C

self-cleavage kobs at 160 uM GlcN6P, < 1e-05 s⁻¹:
G29U C61A C71U
G32A A33U
G40C U69A
C34A A39C U49A U55C
C11G U47G
G35A G37A
G29U G35U G62U
A36U G60A
G7C G35A A64G
A39C A42C U46C
C11G G37C G40A U45A C70U
C10U C71A
A39C G44U
G38U G43A C58G U65C
A33C U47A G59U U65G
G59A G63A
C8G G59A C71G
C11G U31C G41C C70U
U45A U49A C61U C67A
C8A C16A G40C U65G
C34A G37U A48G
A36U G41A C50A
G38A G43C G44U U56C
C34G U56A
A39C G51U
C11G A14U G29C C61G
C16U G32A C34A G41A A42U U49C G60A C68U U69G
G29A G35C A52U U54A
G35A G38A A39G G63C C67U
A6C G35U G40U C67U
G44C A64U
G38U G43U U65C
G41U G59U C71U
U45G A48G G59U
G35U U45A
A36C U54A
C10U U49G U56A
A14C G41C C68U
G29C G37U
C8A G13C U30C G41U
G62U A64C
G35U C67A C68G C70G
G38U G43C
G29A G32A G62U
A6U C8A C16A
U54C U56A G59C U65A
G7C G13U A42G
G32U U46C
U54A C58A G60C
U30A A48C
G9A A52C U57C
U49C U57A C70G
A6G A15U U30C
G7U A14C G59U C71U
A6C U54G
G35C G51C
C50A U55C A64G
G7C A12U
A42C C67G C71U
G44U U65G
G37C U47C A52U
A6C A12C G40C
G60A U65A
G40A C58A
C58A G59A
C10G A12C
A6U C8U C70G
G32A C34U G44A
A33U G40C
C10A G35U U56C
C11U A33C
G32A A42G U56A C70A
G40U G41C U57C C58G
G9A U27C
G13A G43A U46G
A15G U46A A64C
A14C A36C A39U U49A C67U
A52C C61A
A33U U45A A52U G59U C61U
G29U C50U
U55C C58U
A6G G7U A14G A33C
C16A G32U C68U C71A
C10G G62C A64G C70G

Variants of: B1
Experiment: self-cleavage kobs at 2500 uM GlcN6P; higher = faster cleavage; RNA array
Conditions: with glucosamine-6-phosphate
Method in brief: as §1

self-cleavage kobs at 2500 uM GlcN6P, 0.000382 ± 9.3e-05 s⁻¹:
U65A C71G

self-cleavage kobs at 2500 uM GlcN6P, 3.94e-05 ± 9.9e-06 s⁻¹:
A6C U54G

self-cleavage kobs at 2500 uM GlcN6P, < 1e-05 s⁻¹:
G7C C8G A39U U47A A53U
G40C U69A
C11G U47G
G29U G35U G62U
G7C G35A A64G
A6C G9A G29A U31A U49A C50A
A6U A33U G38A C70A
A6U C16G A36U G41U G43C
A6G U65A C70G
G7U A14U U46A A53U C61A
U45A U49A C61U C67A
A6G G13U G40A C71U
C8A C16A G40C U65G
A6U G9A C68U
G7A A42C C50A
G7C U45C G59C
A36U G41A C50A
G7C A39U G41C U56C G60A C68A
C34G U56A
A39C G51U
A6U C8A U56A
A6G A15U U57G
A6C C8G A14C A48C
G7U C16A U31C A39U U46A
A6C A12U G60A
C58G U65C
G7A G38C C70U
G44C A64U
A6G A33G G35U G38C G62C C67A
A6G A14U A48C
A6C A14G G35A U57A G66C C68U
G41U G59U C71U
G7U C11U A53C
G7C C10U C61A
G35U U45A
A14C G41C C68U
A6C G9A C67U
A6C G13C A39U
C8A G13C U30C G41U
G7A G9U
G62U A64C
G7A G38U
A6G A42G U46A U56A
A6G G13A G29U C70G
G7U G35U U45A A53C
A6U U45G A48C A64C
U54C U56A G59C U65A
G7A A15C G32A G60C
G7U A12C A14G U45G
G7C G62U C68G
G7U G13A G38A U55A
A6C A42G U65C
A42C C67G C71U
G7A U46C U49G A52U
G7C C8A U56C U65G
A4U A33U C68G
G7C G35C A48C C58U
A6U A36U G60A C70U
G60A U65A
A6G G13U G62U C68U
A6G G43C C71G
A6U C8U C70G
G32A C34U G44A
G7U C11A G37C C67U C71A
A6C C16U G32U G51A
C10A G35U U56C
G7C U47C U49G
G7U A14C U49C A64G C71U
G7A G32A G43A C67U C68U
G13A G43A U46G
G7A U49A A52C
A6G A36G A39C G59A C61U
A6U U45A C58A G62A
G7C C16A U30A U49G G62C C71A
A33U U45A A52U G59U C61U
A6U C11G A52C
C16A G32U C68U C71A
C10G G62C A64G C70G

self-cleavage kobs at 2500 uM GlcN6P, 5.37e-05 ± 2.3e-05 s⁻¹:
G26U G29A U54A C70U C71U

self-cleavage kobs at 2500 uM GlcN6P, 5.71e-05 ± 1.8e-05 s⁻¹:
G44U U65G

Variants of: B1
Experiment: self-cleavage kobs at 10000 uM GlcN6P; higher = faster cleavage; RNA array
Conditions: with glucosamine-6-phosphate
Method in brief: as §1

self-cleavage kobs at 10000 uM GlcN6P, < 1e-05 s⁻¹:
C11G U47G
A39C G51U
A6C G9A C67U
C8A G13C U30C G41U
G38U G43C
G7C G13U A42G
G59C G66C
G7C A12U
G13A G43A U46G
A52C C61A

self-cleavage kobs at 10000 uM GlcN6P, 0.000152 ± 2.6e-05 s⁻¹:
G44U U65G

self-cleavage kobs at 10000 uM GlcN6P, 7.93e-05 ± 1.1e-05 s⁻¹:
A6C U54G

self-cleavage kobs at 10000 uM GlcN6P, 2.24e-05 ± 9.4e-06 s⁻¹:
C10G A12C

self-cleavage kobs at 10000 uM GlcN6P, 0.000383 ± 8.9e-05 s⁻¹:
U65A C71G

self-cleavage kobs at 10000 uM GlcN6P, 6.55e-05 ± 8.7e-06 s⁻¹:
U55C C58U

Variants of: B1
Experiment: self-cleavage kobs at 640 uM GlcN6P; higher = faster cleavage; RNA array
Conditions: with glucosamine-6-phosphate
Method in brief: as §1

self-cleavage kobs at 640 uM GlcN6P, 5.03e-05 ± 1.4e-05 s⁻¹:
C58U C61G

self-cleavage kobs at 640 uM GlcN6P, 4.82e-05 ± 1.6e-05 s⁻¹:
U69C C70G

self-cleavage kobs at 640 uM GlcN6P, 0.000124 ± 1.6e-05 s⁻¹:
U65A C71G

self-cleavage kobs at 640 uM GlcN6P, < 1e-05 s⁻¹:
C58G U65C
G59C G66C
G60A U65A
C58A G59A
G59A G60U C67U
U57G G66U
G59C A64G U69G
C61U C67G
U57C U65C
